# Source: PubChem BioAssay AID1508624 (National Center for Advancing Translational Sciences (NCATS), 2021)
# The whole screen tested about 48,000 compounds, of which about 120 (0.25%) were called active. Not shown: some 4% with an inconclusive outcome. The call rests on the fitted dose curve; in most records, active means well fitted activation curve with a large enough effect; inconclusive means small, poorly fitted or top-dose-only effect, or another doubt; inactive means no such curve, though single readings can be large or run the other way. This is one part of the list.
# Assay: Primary qHTS for Identification of Small Molecule Activators of Huntingtin-Antisense Promoter Activity; further: nearly all actives have a fitted effect of over 55% in size
# Details: HEK293 HTT-AS promoter firefly luciferase reporter (activity 0% = vehicle and -100% = no light), 24 h; series mostly up to 57.5 µM; activity change, positive = activation: at the top concentration
# Method in brief: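 HEK293 cells carrying firefly luciferase reporters were seeded at 2,500 per well in Opti-MEM and cultured for 24 h. They were then treated with compounds at up to 57.5 uM final for 24 h at 37 degrees C before Dual-Glo luminescence readout.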
row,Structure (SMILES),"activity change, positive = activation"
1,Cc1nn2c(=O)cc(CN(C)c3ccccc3)nc2s1,inactive: -8.77%
2,O=C(COc1ccccc1Cl)Nc1cc(-c2ccccc2F)nn1-c1ccccc1,inactive: 2.84%
3,Cn1nc(C(=O)N2CCN(c3ccc(Cl)cc3)CC2)c2c1-c1ccccc1SC2,inactive: 1.01%
4,Cc1ccc(NC(=O)Cn2nnnc2-c2ccccc2N)cc1,inactive: -4.38%
5,O=c1c2cc3c(cc2nc2sc(Nc4ccc(F)cc4F)nn12)OCO3,inactive: 36.1%
6,O=C(C1CCCN(S(=O)(=O)c2cccs2)C1)N1CCN(c2cccc(Cl)c2)CC1 (stereo not drawn),inactive: -32.7%
7,Cc1ccc(C)c(N2CCN(c3ncnc4c3nc3n4CCCCC3)CC2)c1,inactive: -23.2%
8,Cn1c(=O)c2nc(SCC(=O)Nc3cc(Cl)ccc3Cl)n(C)c2n(C)c1=O,inactive: 2.63%
9,c1ccc(CNc2nc3ccccc3c3nc(-c4ccccc4)nn23)cc1,inactive: -2.59%
10,NC(=O)CSc1nc2c(oc3ccccc32)c(=O)n1-c1ccccc1F,inactive: -13.8%
11,COc1cccc(CNC(=O)CSc2ccc(-c3sc(-c4ccccc4)nc3C)nn2)c1,inactive: -25.7%
12,COc1ccc(Cl)cc1NC(=O)N1CCC(CN2CCc3ccccc3C2)CC1,inactive: -17.4%
13,CCOc1ccc(C(=O)NCC(c2ccco2)S(=O)(=O)c2ccc(C)cc2)cc1 (stereo not drawn),inactive: 5.41%
14,CCN1c2ccccc2-n2cccc2C12CCN(C(=O)Nc1ccccc1C(F)(F)F)CC2,inactive: -9.79%
15,C#CCN(C)Cc1ccccc1,inactive: -2.92%
16,CCOc1ccc(OCC)c(NC(=O)C2CCCN(S(=O)(=O)c3ccc4c(c3)oc(=O)n4C)C2)c1 (stereo not drawn),inactive: -4.76%
17,CCOc1ccc(CNC(=O)Cn2c(=O)c3cccn3c3ccc(F)cc32)cc1,inactive: -11.4%
18,Cc1cccc(-c2nc(SCCCOc3ccccc3Cl)n3[nH]c(=O)cc3n2)c1,inactive: 6.88%
19,CC(=O)Nc1ccc(Nc2ncnc3c2c(-c2ccccc2)cn3-c2ccccc2)cc1,inactive: -32.6%
20,Cc1cc(C)cc(-n2c(SCC(=O)N3CCc4ccccc43)nc3c([nH]c4ccccc43)c2=O)c1,inactive: -21.2%
21,O=C(Nc1ccc(F)c(Cl)c1)N1CCN(C(=O)c2nsc3ccccc23)CC1,inactive: -25.3%
22,CCn1c(C(=O)N2CCC(C(=O)N3CCN(c4cccc(C)c4C)CC3)CC2)cc2sccc21,inactive: -51.3%
23,CCOc1ccc2nc(N3CCN(C(=O)CS(=O)(=O)c4ccc(F)cc4)CC3)sc2c1,inactive: 8.49%
24,COC(=O)c1c(NC(=O)c2ccc(S(=O)(=O)N3CCCC(C)C3)cc2)sc2c1CCN(C(C)C)C2 (stereo not drawn),inactive: -32%
25,Cc1ccc(Cl)c2sc(N3CCN(C(=O)C4CC4)CC3)nc12,inactive: -18.6%

row,Structure (SMILES),"activity change, positive = activation"
1,CC(C)c1ccc(NC(=O)CSc2ncc3c(n2)-c2ccccc2N(C)S3(=O)=O)cc1,inactive: -14.4%
2,CSc1ccc(CNCc2c(C(=O)O)c(C)n(Cc3ccc(F)cc3Cl)c2C)cc1,inactive: -15.7%
3,Cc1ccccc1CNC(=O)c1c(C)oc2c1C1=NCCN1C=N2,inactive: -4.7%
4,Cc1ccccc1Cn1cc(S(=O)(=O)c2ccc(Cl)cc2)c(=O)c2cc3c(cc21)OCO3,inactive: -5.04%
5,Cc1c(NC(=O)c2nc3ccccc3n(C)c2=O)cccc1[N+](=O)[O-],inactive: 12.7%
6,COc1cccc(N2CCN(C(=O)C3CCCN(S(=O)(=O)c4ccc(Br)s4)C3)CC2)c1 (stereo not drawn),inactive: -37%
7,Cc1ccc(NC(=O)c2ccc(NC(=O)N3CCSc4ncccc43)cc2)cc1Cl,inactive: -50.8%
8,CCc1ccc(-n2nc3cc(C)c(NC(=O)c4cc(Cl)ccc4OC)cc3n2)cc1,inactive: -0.66%
9,O=C(Cn1cc(S(=O)(=O)Cc2ccc(F)cc2)c2ccccc21)NCCc1ccccc1,inactive: -35.3%
10,COc1ccc(NS(=O)(=O)c2cc3[nH]c(=O)c(=O)[nH]c3cc2C)cc1OC,inactive: -4.98%
11,Cc1ccc2c(=O)cc(C(=O)Nc3sc4c(c3C(=O)NCc3ccco3)CCC4)oc2c1C,inactive: 1.35%
12,COc1ccc(OCCn2c(C3CC(=O)N(c4ccc(F)cc4)C3)nc3ccccc32)cc1 (stereo not drawn),inactive: -38%
13,COc1ccc(Nc2cc(C(=O)NCCc3ccccc3)c3ccccc3n2)cc1OC,inactive: -5.04%
14,CCCN(C(=O)Cn1ncc2c(=O)oc3ccccc3c21)c1cccc(C)c1,inactive: -12.8%
15,Cc1ccc(CNC(=O)Cn2ncc3c(C)n(Cc4ccc(Cl)cc4)c(C)c3c2=O)cc1,inactive: -5.4%
16,CCC(C)NC(=O)Cn1c(=O)n(Cc2ccc(C(=O)NCCCOC)cc2)c(=O)c2ccccc21 (stereo not drawn),inactive: -11%
17,Cc1ccc(NC(=O)c2c(N3CCCC3=O)c3cc(C)ccc3n2C)c(C)c1,inactive: -1.9%
18,CCCCC12CN3CC(C)(CN(C1)C3c1cc(Br)ccc1O)C2=O (stereo not drawn),inactive: -6.36%
19,CS(=O)(=O)c1ccc2nc(NC(=O)CS(=O)(=O)c3ccc(Cl)cc3)sc2c1,inactive: -11.2%
20,CCOC(=O)CNC(=O)Nc1cc(C(=O)NCc2cccc(F)c2)ccc1N1CCCC1,inactive: 7.23%
21,Cc1ccc(-c2nc3scc(CCNC(=O)c4cccc(Br)c4)n3n2)cc1,inactive: -28.6%
22,COc1ccccc1NC(=O)C1CCCN(c2nnc(C)c3c(C)n(-c4ccccc4)nc23)C1 (stereo not drawn),inactive: -12.1%
23,Cc1ccc(NC2=C(c3ccc(C(F)(F)F)cc3)C(=O)c3ccccc32)cc1F,inactive: -39.1%
24,CCOc1ccccc1NC(=O)CSc1nc2ccccc2c2nc(CCn3cncc3C)nn12,inactive: -20.2%
25,CCCCCC(C)N (stereo not drawn),inactive: 1.78%

row,Structure (SMILES),"activity change, positive = activation"
1,O=C(NCC(c1cccnc1)N1CCc2ccccc21)c1ccccc1Br (stereo not drawn),inactive: -19.7%
2,CCCN(CCC)C(=O)Cn1c(=O)n(-c2cccc(C(F)(F)F)c2)c(=O)c2c(C)c(C)sc21,inactive: 9.88%
3,O=C(Cn1c(=O)n(Cc2ccco2)c(=O)c2cccnc21)Nc1ccccc1F,inactive: -6.3%
4,CCOc1cc(C(=O)Nc2ccc(-c3nc4cc(C)ccc4o3)cc2)cc(OCC)c1OCC,inactive: -15.2%
5,O=C(Nc1ccc2nc(SCC(=O)N3CCCC3)sc2c1)c1ccccc1,inactive: -1.82%
6,O=C1[C@@H]2CSC(c3ccc(F)cc3)N2C(=O)N1c1ccc(Cl)cc1 (stereo partly drawn),inactive: -28.6%
7,COc1ccc(CNC(=O)c2cccc(N3CCCS3(=O)=O)c2)cc1,inactive: -14.9%
8,CCc1ccc(-n2c(=O)c3c4c(sc3n(Cc3ccc(F)cc3)c2=O)CCCC4)cc1,inactive: 0.176%
9,O=C(Cn1c(=O)n2nc(-c3ccccc3)nc2c2ccccc21)Nc1ccccc1C(F)(F)F,inactive: -8.96%
10,Nc1ncc(S(=O)(=O)NCc2cccc(Cl)c2)cn1,inactive: -11.6%
11,Cc1ccc2oc(=O)c3cnn(CC(=O)NCc4ccccc4Cl)c3c2c1,inactive: -8.07%
12,O=C(O)CCC(=O)OC[C@@H](NC(=O)C(Cl)Cl)[C@H](O)c1ccc([N+](=O)[O-])cc1,inactive: -11.6%
13,Cc1ccc(C)n1-c1nnc(N2CCC(C(=O)NCc3ccccc3Cl)CC2)s1,inactive: 8.45%
14,Cc1ccc(-c2nc(CCNC(=O)C(=O)Nc3ccc(C)c(C)c3)cs2)cc1,inactive: -8.78%
15,COc1ccc(S(=O)(=O)N(Cc2nc(-c3ccc(C)cc3)no2)C2CCCCC2)cc1,inactive: -27.5%
16,COc1cc(Cl)c(C)cc1NC(=O)CCc1nc2cccnc2n1-c1ccccc1,inactive: -9.27%
17,CC1=C(C(=O)Nc2ccccc2)C(c2ccccc2)n2nc(-c3ccco3)nc2N1 (stereo not drawn),inactive: -5.3%
18,CC(=O)Nc1nnc(SCc2cc(=O)c3cc(C)ccc3[nH]2)s1,inactive: -20%
19,COc1ccc(NC(=O)Cn2c(SCc3cccc(Cl)c3)nc3ccncc32)c(OC)c1OC,inactive: 2.26%
20,NC(=O)NC1N=C([O][Al])NC1=O (stereo not drawn),inactive: -1%
21,CCOc1ccccc1NC(=O)CCn1c(-c2ccc(OC)cc2)cc(C(C)=O)c1C,inactive: -16.6%
22,Cc1ccc(NCc2cccn2-c2nnc(N3CCCCCC3)s2)cc1,inactive: -61.7%
23,CCOc1ccccc1NC(=O)C(C)Sc1cc(-c2ccccc2)nc(C)n1 (stereo not drawn),inactive: -19.7%
24,Cn1c(=O)cc(SCC(=O)NCc2ccc(F)cc2)c2ccc(Cl)cc21,inactive: 21.5%
25,CCCCNC(=O)C1CCN(S(=O)(=O)c2cc(Br)cc3c2N(C(=O)CC)CC3)CC1,inactive: -2.63%

row,Structure (SMILES),"activity change, positive = activation"
1,COc1ccc(-c2nnc(SCC(=O)Nc3cccc(F)c3)s2)cc1,inactive: -57.7%
2,CCn1cc(C(=O)O)c(=O)c2ccc(C)nc21,inactive
3,Nc1ncn([C@@H]2O[C@H](CO)[C@@H](O)[C@@H]2O)c(=O)n1,inactive: -28.2%
4,Cc1ccc(OCC(=O)Nc2c(C(=O)c3ccccc3)oc3ccccc23)cc1C,inactive: 0.338%
5,COc1ccc(CNC(=O)Cn2c(SCC(=O)N(C)c3ccccc3)nc3ccccc32)cc1,inactive: -4.49%
6,CCOC(=O)c1noc2nc(C)n(CC(=O)Nc3cc(Cl)ccc3OC)c(=O)c12,inactive: -7.4%
7,COc1cc(C(=O)Nc2ccc3nn(-c4ccc(F)cc4)nc3c2)cc(OC)c1OC,inactive: -2.33%
8,CCCCn1c(=O)n(-c2ccc(Br)cc2F)c(=O)c2c3c(sc21)CN(C(C)=O)CC3,inactive: -17.4%
9,Cc1csc2nc(COC(=O)c3ccc(NC(=O)COc4ccccc4F)cc3)cc(=O)n12,inactive: -26.8%
10,COc1ccccc1CNC(=O)C(=O)NCC(c1cccs1)S(=O)(=O)c1ccc(F)cc1 (stereo not drawn),inactive: -27.9%
11,CC1=C(C(=O)OCC2CCCCC2)C(c2ccc(F)cc2F)CC(=O)N1 (stereo not drawn),inactive: -23.3%
12,Oc1c(C(c2ccccc2)N2CCN(Cc3ccccc3)CC2)sc2nc(-c3ccco3)nn12 (stereo not drawn),inactive: -11.9%
13,Cc1ccc(CNC(=O)C2CCN(S(=O)(=O)N3CCC(C)CC3)CC2)cc1,inactive: -10.6%
14,Cc1ccc(C(=O)Nc2nnc(S(=O)(=O)N3CCOCC3)s2)cc1,inactive: 2.5%
15,COC(=O)c1ccc(NC(=O)C2(S(=O)(=O)c3ccc(C)cc3)CC2)cc1,inactive: 0.861%
16,COC(=O)c1sc(-c2ccccc2)cc1NC(=O)c1cccc(F)c1,inactive: -5.71%
17,O=C(NCc1ccc(F)cc1)C1CCN(C(=O)c2ccc(-n3ccc4ccccc43)s2)CC1,inactive: -23.4%
18,Cc1ccc(CN2CCCn3nc(C(=O)NCCC(C)C)cc3C2=O)cc1,inactive: -2.18%
19,CCN(CC)CCNC(=O)c1cc(S(C)(=O)=O)ccc1OC,inactive: 2.59%
20,COc1cccc(CNC(=O)c2c(C)nn(-c3cccc(C)c3)c2-n2cccc2)c1,inactive: -20.7%
21,O=C(NCCCc1ccccc1)c1nn(-c2ccccc2F)nc1CO,inactive: -32.7%
22,O=C(NCCc1ccccc1)c1ccc(CSc2nc3cccnc3n2Cc2ccc(F)cc2)cc1,inactive: -15.5%
23,CC(=O)c1ccc(NC(=O)C2CCC(CNS(=O)(=O)c3ccc(Br)s3)CC2)cc1 (stereo not drawn),inactive: -3.96%
